Results published in patent publication US12709641B2.

Target: wild type tau (Homo sapiens (Human)), P10636
Assay: Octet
Conditions: remark: other sources report otherwise

B1: V0009 (antibody, V domains shown)
VH: EVQLVESGGALVQPGGSLSLSCAASGFTFTDYYMSWVRQPPGKALEWLALIRNKAKGFTTEYSASVKGRFTISRDNSQSILLFQMNDLRADDSATYYCVRDINYWGQGTTLTVSS
VL: DIVMSQSPSSLAVSVGEKVTMS[sequence of about 80 residues not given]FGGGTKLEIK
Which Kd does the source give for B1 here?
The Kd was greater than 200 nM.
